Whole data set: some 110,000 compounds, median “z-score” near -0.1, cut for the highest 2% near 2. The list shows a part of the results. Activity calls are given as the source filed them.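 The calls were made as follows: active = z-score in the third read window above 3 or below -3; inactive = the rest.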

This assay concerns the target Metabotropic glutamate receptor 8 (Rattus norvegicus) (UniProt P70579). The assay is described as follows: rat mGluR8 modulators via GIRK flux, primary screen, cell-based, thallium flux, HTS (AID 488969). The following applies: HEK293 rat mGluR8, GIRK (G protein-gated inwardly rectifying potassium channel) thallium flux, FluoZin2; at 10 µM; stronger effect = higher value; submaximal glutamate (EC20) added with thallium.
Sequence of UniProt P70579 (P70579 whole entry, looked up): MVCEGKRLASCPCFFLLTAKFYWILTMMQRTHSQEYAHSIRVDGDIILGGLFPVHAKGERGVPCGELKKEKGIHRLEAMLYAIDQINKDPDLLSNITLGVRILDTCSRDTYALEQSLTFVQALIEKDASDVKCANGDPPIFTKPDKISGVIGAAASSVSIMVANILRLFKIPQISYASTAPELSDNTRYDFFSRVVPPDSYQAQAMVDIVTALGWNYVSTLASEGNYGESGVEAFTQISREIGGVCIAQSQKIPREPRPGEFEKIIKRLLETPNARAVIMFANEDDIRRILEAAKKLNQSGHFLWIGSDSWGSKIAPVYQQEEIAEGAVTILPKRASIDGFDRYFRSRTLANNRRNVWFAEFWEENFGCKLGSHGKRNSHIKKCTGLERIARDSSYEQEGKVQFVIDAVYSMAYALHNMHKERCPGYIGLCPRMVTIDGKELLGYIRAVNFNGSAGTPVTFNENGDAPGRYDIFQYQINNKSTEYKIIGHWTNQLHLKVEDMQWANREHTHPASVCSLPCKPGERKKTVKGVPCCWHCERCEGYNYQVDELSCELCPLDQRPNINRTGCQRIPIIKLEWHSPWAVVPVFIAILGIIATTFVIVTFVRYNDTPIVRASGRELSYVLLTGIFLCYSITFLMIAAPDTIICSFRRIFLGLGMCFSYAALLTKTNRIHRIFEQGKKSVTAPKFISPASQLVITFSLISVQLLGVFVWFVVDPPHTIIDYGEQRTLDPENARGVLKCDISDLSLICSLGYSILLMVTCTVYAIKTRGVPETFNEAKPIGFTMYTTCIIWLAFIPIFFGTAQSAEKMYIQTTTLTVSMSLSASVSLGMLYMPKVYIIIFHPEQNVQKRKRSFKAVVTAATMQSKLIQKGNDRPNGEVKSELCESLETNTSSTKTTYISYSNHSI
For the compound `Clc1cccc(CSc2nnc(-c3c[nH]c4ccccc34)o2)c1`, the z-score is -0.312.
Regarding `O=C(C1CCCCC1)N1CCCn2c1nc1ccccc12`, the z-score was -0.596.
`CCc1cc2ccc(C)cc2nc1SCC(=O)NNC(=O)c1ccco1` came in with a z-score of 1.26.
The compound `COC(=O)c1cc(COc2ccc3c(c2)oc(=O)c2ccccc23)c(C)o1` returned a z-score of -0.108.
Turning to `O=C(NC1CCCCCC1)C1CCN(c2nc3ccccc3o2)CC1`, the z-score is -0.278.
Compound `CCOC(=O)C1CCN(c2c(NCCN3CCN(c4ccccc4)CC3)c(=O)c2=O)CC1` returned a z-score of 0.155.
`CC(=O)Nc1cc(S(=O)(=O)Nc2ccccc2)c(C)cc1C` yielded a z-score of -0.09.
`Cc1ccc(NC(=O)C2C3CCCC2C3c2ccccc2)c(C)c1` (stereo not given) registered a z-score of -0.126.
`CC(C)CCNC(=O)CN(Cc1ccc2c(c1)OCO2)C(=O)Cn1nnc(-c2cccs2)n1` displayed a z-score of -0.787.
To `O=C(N=Nc1c(O)[nH]c2ccc(Br)cc12)c1ccccc1-n1cccc1` belongs -1.22; to `CCc1c(C)sc(NC(=O)C2CCCCC2C(=O)O)c1C(N)=O` (stereo not given), -0.227.
`Cc1nc2ccccn2c1-c1nnco1`: the z-score is 0.116.
In turn, `O=c1c2c3c(sc2nc2sc(CN4CCCCC4)cn12)CCCC3` registered a z-score of -0.178.
`CCC1CCCCN1S(=O)(=O)c1ccc(S(=O)(=O)N(Cc2ccccn2)CC2CCCO2)cc1` (stereo not given) yielded a z-score of -0.251.
The value for `O=C(CCNc1n[nH]c(=O)[nH]c1=O)N1CCOCC1` was -0.44; that for `CC1(C)COC(c2coc3ccccc3c2=O)OC1` was 0.437; that for `CCOC(=O)c1sc(C)c2c(=O)n(CCc3ccccc3)nnc12` was -0.606.
The value for `COC(=O)c1cccc(S(=O)(=O)N(Cc2ccco2)Cc2cc3cc(OC)ccc3[nH]c2=O)c1` was 0.188.
On to `CCOc1ccc(C(=O)NC(=S)Nc2ncccc2C)cc1[N+](=O)[O-]`, for which the z-score is -0.0354.
`O=C(Cn1c2ccccc2c(=O)c2ccccc21)N/N=C/c1cc([N+](=O)[O-])ccc1N1CCCCCC1` gave a z-score of 0.36.
To `CC(NC(=O)C1CCCN(S(=O)(=O)c2cccs2)C1)c1ccccc1` (stereo not given) belongs -0.404.
For `CCOC(=O)/C(C#N)=C/c1cc(C)n(-c2ccc(C)cc2)c1C`, the z-score is -0.0145.
The compound `O=C(NCCCN1CCCCCC1)C1CC(=O)N(CCc2ccccc2)C1` (stereo not given) returned a z-score of 0.503.
Turning to `CC(C)CN1C(=O)NC(NC(=O)c2ccco2)(C(F)(F)F)C1=O` (stereo not given), the z-score turned out to be 0.0372.
The value for `CCN(CC)C(C(=O)Nc1ccc(C(C)C)cc1)c1ccc2c(c1)OCO2` (stereo not given) was 0.483.
The value for `O=C(O)c1cccc(NC(=O)C2CC(=O)N(Cc3ccccc3)C2)c1` (stereo not given) was 0.121; that for `O=C(COC(=O)CCc1ccc(S(=O)(=O)N2CCOCC2)cc1)NC1CCCCCC1` was -0.285; that for `CCOc1ccc2cc(S(=O)(=O)N3CCOCC3)ccc2c1` was -0.000556.
`O=C(Oc1ccccc1C(=O)N1CCOCC1)c1ccc(Br)cc1`: the z-score was -0.229.
The value for `CCC(=O)NC(=S)Nc1cccc(NC(=O)CC)c1` was 0.095; that for `O=C(Nc1ccc(Cl)cc1F)C1CC1` was 0.223.
`CC(=O)OC1COC(N2CCc3ccccc32)C(OC(C)=O)C1OC(C)=O` (stereo not given) displayed a z-score of -0.185.
`CN(C)CCCN1C(=O)c2oc3ccc(Cl)cc3c(=O)c2C1c1cccnc1` (stereo not given): the z-score worked out at 0.772.
The compound `COc1ccc(C(=O)N2CCN(C3CCN(Cc4ccccc4)CC3)CC2)cc1OC` displayed a z-score of 0.152.
To `CCOC(=O)c1ccc2c(c1)nc(C)n2CC` belongs -0.272; to `CCOC(=O)N1CCN(C(=O)C2CCCN(S(=O)(=O)c3cccnc3)C2)CC1` (stereo not given), -0.952; to `Cc1ccc(/C=C/C(=O)O)cc1S(=O)(=O)NCCCC(=O)O`, -0.206.
As to `COc1ccc(C(=O)CSc2nnc(CCc3ccccc3)n2-c2ccccc2)cc1`, the z-score is -0.133.
Consider `O=C(CCCC(=O)N(CC(=O)NC1CCCC1)Cc1ccccc1Cl)Nc1ccccn1`, for which the z-score is -0.251.
As to `CCOC(=O)C1=C(C)N(c2ccccc2)C(=O)/C1=C\c1cccs1`, the z-score was -0.246.
In turn, `O=C(Oc1ccccc1C(=O)N1CCOCC1)c1ccccc1` showed a z-score of 0.165.
With `CC(C)(Oc1ccc(Cl)cc1)C(=O)OCn1nnc2ccccc2c1=O`, the z-score worked out at 0.136.
Regarding `Cc1cc(C)c2c(N)c(C(=O)Nc3nccs3)sc2n1`, the z-score was determined as 0.548.
`CNC(=O)C(=O)Nc1c(C)cc(C)cc1C` showed a z-score of -0.0656.
In turn, `CCOc1ccc(NC(=O)CCSc2nc3c(c(CC)c2C#N)C(=O)CC(C)(C)C3)cc1` gave a z-score of -0.202.
In turn, `CCCS(=O)(=O)N1CCC(C(=O)NCCCN2CCC(Cc3ccccc3)CC2)CC1` registered a z-score of 0.0734.
In turn, `Cc1ccc(C(=O)O/N=C/C2=C(Cl)c3ccccc3CC2)cc1` showed a z-score of 0.993.
`Cc1ccc2cc(/C=N/NC(=O)c3ccccc3O)c(Cl)nc2c1` returned a z-score of -0.549.
As for `COc1cc(C(=O)Nc2nc(-c3ccc(Cl)cc3)c(C)s2)ccc1OCC(=O)Nc1ccc(F)cc1`, the z-score is -0.246.
As to `CC(C)COc1nc2ccccc2nc1C(C#N)C(=O)NC1CCCCC1` (stereo not given), the z-score was -0.0334.
To `CN(C)c1ccc(/C=[N+](\[O-])C2SC(=S)N(C)C2(C)C)cc1` (stereo not given) belongs 0.0932.
In turn, `COc1ccccc1N1CCN(C(=O)CCCN2C(=O)c3cccc4cccc(c34)C2=O)CC1` displayed a z-score of -0.334.
Take `Cc1ccc(Nc2nc(C)c(CCC(C)C)c(=O)[nH]2)cc1`: the z-score stood at 0.22.
In turn, `COc1ccc(CNC(=S)Nc2cc(C)cc(C)c2)cc1` registered a z-score of 0.0468.
The value for `O=C1/C(=C\c2cccnc2)CCc2ccccc21` was -0.396; that for `CC(=O)C1=C(O)CCC1=NCCc1ccccc1` was -0.0979; that for `COc1ccc(NC(=O)c2cnc(C)cn2)c2ncccc12` was -0.327.
The compound `Cc1cccc(C)c1-n1c(C)cc(/C=N\NC(=O)CC(=O)NC2CCCCC2)c1C` returned a z-score of -0.426.
In turn, `COc1ccc(C)cc1NC(=O)C12CCC(C)(C(=O)O1)C2(C)C` (stereo not given) had a z-score of -0.0486.
Regarding `Cc1nn(Cc2ccc(Cl)cc2Cl)c(C)c1NC(=O)c1ccc(COc2cc(Cl)ccc2Cl)o1`, the z-score is -0.124.
The value for `COc1cc(/C=N/n2cnnc2)ccc1OC(=O)c1ccncc1` was -0.14; that for `CC(C)(C)c1csc(N(CCC#N)CCC#N)n1` was -0.355; that for `COC(=O)c1cc(Cl)c(NC(=O)c2ccc(C(C)(C)C)cc2)cc1OC` was -0.633.
For `Cc1cccc(CSCc2nnc(N)s2)c1`, the z-score is -0.191.
`COc1ccc(Nc2oc(COc3ccc(OC)cc3)nc2C#N)cc1` displayed a z-score of 0.0869.
To `CCN(CC)c1nc(-c2ccccc2)cc(C(F)(F)F)c1C#N` belongs -0.0959; to `COc1ccc(C(=O)COC(=O)CCCn2c(=O)oc3ccccc32)cc1`, 0.126.
The value for `Cc1cc(C)nc(N(C#N)Cc2ccccc2)n1` was 0.201.
In the case of `Cc1nc2sc3c(c2c(=O)o1)CCC3`, the z-score was 0.436.
In the case of `O=C(Cn1cc2c(n1)CCCC2)Nc1ccccc1Br`, the z-score was -0.412.
`CCCOc1ccc(C(=O)CCC(=O)OCC(=O)Nc2cc(C)on2)cc1` came in with a z-score of -0.574.
As for `Cc1ccc(-n2ncc3c(Nc4cccc(C(=O)O)c4)ncnc32)cc1`, the z-score was -1.1.
Compound `Nc1nc(SCC(=O)Nc2ccc(Br)cc2F)n[nH]1` came in with a z-score of 0.349.
Turning to `COc1ccc(C(OC(=O)c2ccco2)C(=O)NCC2CCCO2)cc1` (stereo not given), the z-score was -0.972.
The value for `c1cnn(-c2cc(N3CCOCC3)ncn2)c1` was -0.268; that for `C/C(Cl)=C/CN1C(=O)C2C3C=CC(C3)C2C1=O` (stereo not given) was -0.13.
With `COC(=O)c1ccccc1NC(=O)c1cc(-c2ccc(O)cc2)on1`, the z-score is -0.322.
The compound `Clc1cccc(Cl)c1Cn1cnc2c(N3CCCCCC3)ncnc21` came in with a z-score of -0.663.
As to `O=C(CC1Nc2ccccc2NC1=O)NCCc1ccccc1` (stereo not given), the z-score is -0.0324.
With `CCC(=O)N1CCN(c2ccc(NC(=S)NC(=O)c3cccc([N+](=O)[O-])c3)cc2)CC1`, the z-score came out at 0.125.
To `Cc1cc(C)nc(Sc2ncnc3sc4c(c23)CCC4)n1` belongs active: 5.12.
`CCOC(=O)c1ccc(N=c2sc(C(=O)OC)cc(=O)n2Cc2ccc3c(c2)OCO3)cc1`: the z-score was found to be 0.428.
`N#Cc1c(-c2ccccc2)nc2n(c1=O)CCS2` showed a z-score of 0.404.
`Cc1ccc(C(C(=O)NCc2ccco2)N(C(=O)CNC(=O)c2cccs2)c2c(C)cc(C)cc2C)cc1` (stereo not given) displayed a z-score of 0.407.
In the case of `COc1ccc(S(=O)(=O)N(C)CC(=O)Nc2ccccc2SC)cc1Cl`, the z-score is -0.243.
The value for `N#Cc1c(-c2ccccc2)nc(SCC(=O)Nc2ccccc2)[nH]c1=O` was -1.89.
On to `COC(=O)c1ccc(CSC2=NCCS2)cc1`, for which the z-score is -0.195.
As for `CCCn1c(C)cc(C(=O)COC(=O)CN=C2NS(=O)(=O)c3ccccc32)c1C`, the z-score was -0.124.
On to `CCC(=O)Nc1nc(C)nc(C)c1C(C)=O`, for which the z-score came out at 0.102.
`CCCCc1[nH]c(=O)c(C#N)c2c1CCCC2` came in with a z-score of -0.203.
On to `C/C(=N\NS(=O)(=O)c1ccc(Cl)c([N+](=O)[O-])c1)c1cc2ccccc2o1`, for which the z-score is -0.691.
The compound `Cc1oc(-c2cccc(Cl)c2)nc1CN1CCCC(C(=O)NCCCN2CCOCC2)C1` (stereo not given) displayed a z-score of 0.0635.
`COc1cnc(-c2ccccn2)nc1Sc1cccc(Cl)c1` gave a z-score of -0.464.
On to `COC(=O)c1ccc(C(=O)OC)c(NC(=O)COc2ccccc2OC)c1`, for which the z-score is -0.04.
Compound `CCN=c1scc(C)n1/N=C/c1ccc(O)c(O)c1O` showed a z-score of -0.528.
Compound `N#C/C(=C(/O)COC(=O)CSc1ccc2ccccc2c1)c1nc2ccccc2[nH]1` gave a z-score of 0.0152.
The value for `CCC(C(=O)N1CCN(c2cccc(Cl)c2)CC1)c1ccccc1` (stereo not given) was 1.82; that for `CSc1nnc(C)c(/C=C/Nc2ccc(F)cc2)n1` was -0.895.
`COc1ccc([N+](=O)[O-])cc1/C=N/NC(=O)CNC(=O)C(c1ccccc1)c1ccccc1` registered a z-score of -0.173.
To `Cc1ccc(C)c2c1sc(=NC(=O)CN1C(=O)CCC1=O)n2C` belongs 0.351; to `CCC(c1nnnn1CC1CCCO1)N(CCCO)Cc1cc2cccc(C)c2[nH]c1=O` (stereo not given), 0.0164.
As for `O=C(O)CSC1=NC(=Nc2ccc(Cl)cc2)C2(CCCCC2)N1c1cccc(C(=O)O)c1`, the z-score was determined as 0.83.
The compound `Cn1c(C(=O)Nc2ccccc2)cc2sccc21` showed a z-score of 0.454.
The value for `O=C1CCCC/C1=C\Nc1ccc(Cl)cn1` was 0.295.
To `COc1ccc(C(=O)c2cnc3ccccc3c2-c2ccccc2)cc1` belongs -2.76.
The value for `COc1ccc(CCn2c(-c3cc([N+](=O)[O-])cc([N+](=O)[O-])c3)nc3nc4ccccc4nc32)cc1` was 0.0336.
Take `CC(CCc1ccccc1)NC(=O)CSc1ccccc1` (stereo not given): the z-score was -0.00119.
With `C=CCN1C(=O)C(Cc2ccc(F)cc2)S/C1=N/N=C/c1cccs1` (stereo not given), the z-score was 0.0602.
`O=C(CN=C1NC(=O)C(c2ccccc2)(c2ccccc2)N1)NCc1ccc(F)cc1` came in with a z-score of -0.114.
The compound `COC(=O)C1=C(CSc2nccn2C)NC(=O)NC1c1cc(C)ccc1C` (stereo not given) gave a z-score of -0.248.

Values taken from PubChem BioAssay AID488969 (Vanderbilt High Throughput Screening Facility, 2010).
